{"source": "PubChem BioAssay AID741", "about": "(SRMLSC, 2007)", "note": "Inconclusive results, whose numbers are uncertain, are shown with a selection of clear calls. Activity calls are given as the source filed them. Rule as the data show it: active = toxicity enhancement factor above about 0.054; inconclusive = between about 0.00067 and that limit; inactive = weaker than that."}
{"assay": "MRP-overexpressing cell chemosensitization – dose response (AID 741)", "details": "MRP-overexpressing cells, viability with/without cytotoxic drug; stronger effect = higher value"}
{"smiles": "O=c1c2ccccc2[se]n1-c1ccccc1", "toxicity enhancement factor": "inconclusive: 0.0028"}
{"smiles": "CCN(CC)CCCN=Cc1c(O)n(Cc2ccc(F)cc2)c(=O)[nH]c1=O", "toxicity enhancement factor": "inconclusive: 0.0028"}
{"smiles": "O[C@H]1[C@H](O)[C@@H](O)CN2CC[C@H](O)[C@H]12", "toxicity enhancement factor": "inactive: -0.0036"}
{"smiles": "O=C1CCCC2C3CCCN4CCCC(CN12)C34", "note": "(stereo not given)", "toxicity enhancement factor": "inactive: -0.0048"}
{"smiles": "CSC1=NP(=S)(SC)N(C)c2nc3n(c21)CCC3", "note": "(stereo not given)", "toxicity enhancement factor": "inconclusive: 0.0041"}
